In one experiment the test system is Magnaporthe grisea. Format: in vivo. Particulars: 250 ppm spray, preventive; control value class.
Experiment [1] concerns Colletotrichum orbiculare. Particulars: 250 ppm spray (2.5 ml/pot), preventive; 6-10 days after inoculation; control value class.
A further experiment deals with Phytophthora infestans. The format is in vivo. Particulars: 250 ppm spray (2.5 ml/pot), preventive; 5-10 days after inoculation; control value class.

On to `CCn1c(-c2c(F)cccc2F)c(-c2cc(OC)ccc2Cl)cc(C2CC2)c1=O` [Compound 352], for which, in the experiment with Magnaporthe grisea, the “Test A control value (blast on rice)” value is recorded as “H (H shows more than 50% of control values)”. The “Test H control value (anthracnose on cucumber)” value (shortened to “Test H control value”) in experiment [1] is “L (L shows 50% or less of control values)”. Moreover, the “Test F control value (late blight on tomato)” value (shortened to “Test F control value”) in the experiment on Phytophthora infestans was “L (L shows 50% or less of control values)”.
Turning to `Cn1c(-c2c(F)cccc2F)c(-c2cc(OCC3OCCO3)ccc2Cl)ccc1=O` [Compound 316], the “Test A control value (blast on rice)” value with Magnaporthe grisea is “H (H shows more than 50% of control values)”. Besides, in experiment [1], the “Test H control value” value is “L (L shows 50% or less of control values)”. In the experiment with Phytophthora infestans, the “Test F control value” value is “L (L shows 50% or less of control values)”.
Consider `CCn1c(-c2c(F)cccc2F)c(-c2cc(OCCOC)ccc2Cl)cc(Cl)c1=O` [Compound 195], for which the “Test A control value (blast on rice)” value with Magnaporthe grisea is reported as “H (H shows more than 50% of control values)”. Besides, in experiment [1], the “Test H control value” value is reported as “H (H shows more than 50% of control values)”. Also, in the experiment on Phytophthora infestans, the “Test F control value” value is on record as “L (L shows 50% or less of control values)”.
Take `CCn1c(-c2c(F)cccc2F)c(-c2cc(OCCC#N)ccc2Cl)ccc1=O` [Compound 250]: the “Test A control value (blast on rice)” value with Magnaporthe grisea was “H (H shows more than 50% of control values)”. The “Test H control value” value in experiment [1] was “H (H shows more than 50% of control values)”. In addition, the “Test F control value” value in the experiment on Phytophthora infestans is “L (L shows 50% or less of control values)”.
For the molecule `O=c1c(Cl)cc(-c2cccc(Cl)c2Cl)c(-c2c(F)cccc2F)n1CC(F)F` [Compound 367], the “Test A control value (blast on rice)” value in the experiment on Magnaporthe grisea is “H (H shows more than 50% of control values)”. Moreover, the “Test H control value” value in experiment [1] was “L (L shows 50% or less of control values)”. Further, the “Test F control value” value with Phytophthora infestans is “L (L shows 50% or less of control values)”.
For the molecule `CCn1c(-c2c(F)cccc2F)c(-c2cc(OC3CCCC3)ccc2Cl)ccc1=O` [Compound 287], the “Test A control value (blast on rice)” value with Magnaporthe grisea was “H (H shows more than 50% of control values)”. In addition, in experiment [1], the “Test H control value” value is “L (L shows 50% or less of control values)”. The “Test F control value” value in the experiment on Phytophthora infestans is on record as “L (L shows 50% or less of control values)”.
With `CCCCOc1ccc(Cl)c(-c2ccc(=O)n(C)c2-c2c(F)cccc2F)c1` [Compound 253], the “Test A control value (blast on rice)” value with Magnaporthe grisea is recorded as “H (H shows more than 50% of control values)”. In experiment [1], the “Test H control value” value is “H (H shows more than 50% of control values)”. The “Test F control value” value in the experiment on Phytophthora infestans is listed as “L (L shows 50% or less of control values)”.
For `CCn1c(-c2c(F)cncc2F)c(-c2cc(OC)cc(OC)c2)ccc1=O` [Compound 215], in the experiment with Magnaporthe grisea, the “Test A control value (blast on rice)” value was “H (H shows more than 50% of control values)”. Also, in experiment [1], the “Test H control value” value was “H (H shows more than 50% of control values)”. In addition, the “Test F control value” value with Phytophthora infestans is recorded as “L (L shows 50% or less of control values)”.
Take `COc1cc(OC)c(Br)c(-c2ccc(=O)n(C)c2-c2c(F)cc(Br)cc2F)c1` [Compound 204]: in the experiment with Magnaporthe grisea, the “Test A control value (blast on rice)” value was “H (H shows more than 50% of control values)”. Also, the “Test H control value” value in experiment [1] is listed as “H (H shows more than 50% of control values)”. Besides, the “Test F control value” value in the experiment on Phytophthora infestans was “H (H shows more than 50% of control values)”.
With `Cn1c(-c2c(F)cccc2F)c(-c2cc(F)ccc2Cl)cc(Br)c1=O` [Compound 363], in the experiment with Magnaporthe grisea, the “Test A control value (blast on rice)” value is listed as “H (H shows more than 50% of control values)”. For the same molecule, the “Test H control value” value in experiment [1] is listed as “H (H shows more than 50% of control values)”. Also, the “Test F control value” value in the experiment on Phytophthora infestans is listed as “L (L shows 50% or less of control values)”.
Turning to `CCn1c(-c2c(F)cccc2F)c(-c2ccc(Cl)cc2Cl)ccc1=O` [Compound 332], in the experiment with Magnaporthe grisea, the “Test A control value (blast on rice)” value is “H (H shows more than 50% of control values)”. In addition, in experiment [1], the “Test H control value” value was “H (H shows more than 50% of control values)”. For the same molecule, the “Test F control value” value in the experiment on Phytophthora infestans is reported as “L (L shows 50% or less of control values)”.
Turning to `CCCOc1ccc(Cl)c(-c2ccc(=O)n(CC)c2-c2c(F)cccc2F)c1` [Compound 242], the “Test A control value (blast on rice)” value in the experiment with Magnaporthe grisea is reported as “H (H shows more than 50% of control values)”. In addition, the “Test H control value” value in experiment [1] was “H (H shows more than 50% of control values)”. Besides, the “Test F control value” value in the experiment with Phytophthora infestans was “L (L shows 50% or less of control values)”.
Regarding `CCn1c(-c2c(F)cccc2F)c(-c2cc(OC(C)C)ccc2Cl)ccc1=O` [Compound 256], the “Test A control value (blast on rice)” value with Magnaporthe grisea is “H (H shows more than 50% of control values)”. The “Test H control value” value in experiment [1] is given as “H (H shows more than 50% of control values)”. Besides, the “Test F control value” value in the experiment with Phytophthora infestans is reported as “L (L shows 50% or less of control values)”.
On to `CCn1c(-c2c(F)cc(F)cc2F)c(-c2cc(F)ccc2Cl)ccc1=O` [Compound 321, 5-(2-chloro-5-fluorophenyl)-1-ethyl-6-(2,4,6-trifluorophenyl)pyridine-2(1H)-one], for which, in the experiment on Magnaporthe grisea, the “Test A control value (blast on rice)” value is recorded as “H (H shows more than 50% of control values)”. The “Test H control value” value in experiment [1] is listed as “H (H shows more than 50% of control values)”. Further, in the experiment on Phytophthora infestans, the “Test F control value” value was “H (H shows more than 50% of control values)”.
On to `CCOc1ccc(Cl)c(-c2ccc(=O)n(CC(F)F)c2-c2c(F)cccc2F)c1` [Compound 214], for which the “Test A control value (blast on rice)” value in the experiment with Magnaporthe grisea was “H (H shows more than 50% of control values)”. Further, the “Test H control value” value in experiment [1] was “H (H shows more than 50% of control values)”. For the same molecule, the “Test F control value” value in the experiment with Phytophthora infestans is listed as “L (L shows 50% or less of control values)”.
In the case of `Cn1c(-c2c(F)cc(F)cc2F)c(-c2cc(F)ccc2Cl)cc(Cl)c1=O` [Compound 340], in the experiment with Magnaporthe grisea, the “Test A control value (blast on rice)” value is listed as “H (H shows more than 50% of control values)”. For the same molecule, the “Test H control value” value in experiment [1] is reported as “H (H shows more than 50% of control values)”. The “Test F control value” value with Phytophthora infestans is “L (L shows 50% or less of control values)”.
As for `CCn1c(-c2c(F)cccc2F)c(-c2cc(OCOCC[Si](C)(C)C)ccc2Cl)ccc1=O` [Compound 245], the “Test A control value (blast on rice)” value in the experiment with Magnaporthe grisea is reported as “L (L shows 50% or less of control values)”. For the same molecule, the “Test H control value” value in experiment [1] is reported as “L (L shows 50% or less of control values)”. In the experiment on Phytophthora infestans, the “Test F control value” value was “L (L shows 50% or less of control values)”.
On to `COc1ccc(Cl)c(-c2cc(Cl)c(=O)n(CC(F)F)c2-c2c(F)cccc2F)c1` [Compound 197], for which the “Test A control value (blast on rice)” value in the experiment with Magnaporthe grisea is “H (H shows more than 50% of control values)”. Further, the “Test H control value” value in experiment [1] is given as “H (H shows more than 50% of control values)”. In the experiment on Phytophthora infestans, the “Test F control value” value was “L (L shows 50% or less of control values)”.
Take `CCn1c(-c2c(F)cccc2F)c(-c2cc(OC[Si](C)(C)C)ccc2Cl)ccc1=O` [Compound 260]: in the experiment on Magnaporthe grisea, the “Test A control value (blast on rice)” value is listed as “L (L shows 50% or less of control values)”. Further, the “Test H control value” value in experiment [1] is listed as “H (H shows more than 50% of control values)”. Also, the “Test F control value” value in the experiment with Phytophthora infestans is “L (L shows 50% or less of control values)”.
Consider `Cn1c(-c2c(F)cccc2F)c(-c2cc(OCS(C)(=O)=O)ccc2Cl)ccc1=O` [Compound 312], for which, in the experiment with Magnaporthe grisea, the “Test A control value (blast on rice)” value is listed as “L (L shows 50% or less of control values)”. Also, the “Test H control value” value in experiment [1] is “L (L shows 50% or less of control values)”. The “Test F control value” value in the experiment with Phytophthora infestans is “L (L shows 50% or less of control values)”.

The values above are taken from US10299477B2 (priority 2015, dated 2019).
